Results taken from paper PMC12136788.
The other results are listed elsewhere or left out.

B1: chr4:150265445:150265561:-|3pUTR|ENSG00000198589|unk|FALSE|bound_elsewhere (ssRNA)
RNA: GGGAGUUCUACAGUCCGACGAUCGGAUUAGCAAAGCAGAAAACUGGCUGCUGGGUUCUGUAGUUUUAAAAAAUCUAUAUUUUUAGUCAUAAUGAGAAGUCUAUUUUCACCAAUUAUGGAAACAUACAGUGGAGCAAGUAAACCCAACAGAGGAUUGAGCAUCA
B2: chr17:80395157:80395266:+|3pUTR|ENSG00000173821|unk|FALSE|bound_elsewhere (ssRNA)
RNA: GGGAGUUCUACAGUCCGACGAUCCUUCAAAGCCUUAACUGUCAAAUCUUGCAUUAUCUUGUUUGUACAGAAAUAUACUGGCCUAGCAGAGGCAAAAAAAAAAAAAAUGAAUUUUAUUUUACUUGUCACACCUGUCUUAAUAAACAACAGAGGAUUGAGCAUCA
B3: chr7:158693335:158693439:-|CDS|ENSG00000146918|unk|FALSE|unique (ssRNA)
RNA: GGGAGUUCUACAGUCCGACGAUCAAGGAAACAGAAAGAAGAAUUAUGGCAAAGGCUGAAGAAUUUAUUGACAGAUGUGUUGUUAGAAAGCCCAGUGGAUGGGUGGCAGGUAGUGGAAGCCCAGGGUGAAGACAAUAUGGAAACCAACAGAGGAUUGAGCAUCA
B4: ENSG00000198589:be:win_4251|CDS|ENSG00000198589|bound_else_gene|NA|bound_elsewhere_windowed (ssRNA)
RNA: GGGAGUUCUACAGUCCGACGAUCUAUAUUUGCAAGUUCUCUUGGCUUUACUGAAAUUGAAGCUGAAAAAAGUAUGUCAUCUGGAGGAAUUUUGCGGCAGUGUCUCCGACUAGUUUGUGCAGUCGCAGUAAGGAAUUGCUUGGACAACAGAGGAUUGAGCAUCA
B5: chr4:108667468:108667493:+|3pUTR|ENSG00000198856|msi1_unk|FALSE|overlapping (ssRNA)
RNA: GGGAGUUCUACAGUCCGACGAUCGAAUUUUUUUUCCUGCUGGCCUAUUGCUAUACCAAUGAUGUUGAGUGGCAUUUUCUUUUUAGUUUUUCAUUAAAAUAUAUUCCAUAUCUACAACUAUAAUAUCAAAUAAAGUGAUUAUUUCAACAGAGGAUUGAGCAUCA
B6: chr12:46358264:46358384:-|3pUTR|ENSG00000134294|msi1|total|mutant (ssRNA)
RNA: GGGAGUUCUACAGUCCGACGAUCAAUGUGAUCCCGUGUAAUGGAAGACCUUUGAGAACCUGGGUGUAUUAACUUUGUGUAUACCGUGUAAAUAUCCCCACUGUACUGUCCGAGGCCAACAAUUCCCGUAUGGCUUGUUGGCAACAACAGAGGAUUGAGCAUCA
B7: chr2:218264180:218264222:-|3pUTR|ENSG00000127837|msi1_unk|FALSE|overlapping (ssRNA)
RNA: GGGAGUUCUACAGUCCGACGAUCUUGAGGUUCCCGUUCUUUCCCUUCCCAAGUCUCUGGGGGUGGAAAGGAGGAAGAGAUACUAGUUAAAGAUUUUAAAAAUGUAAAUAAAAUAUACUUCCCAGAGACAGAGUCUGUGUGGAUCAACAGAGGAUUGAGCAUCA
B8: chr5:173316791:173316892:-|3pUTR|ENSG00000113739|msi1|total|mutant (ssRNA)
RNA: GGGAGUUCUACAGUCCGACGAUCGGAAACCUUAUACCCAGAGGAAAAUACACACCUGGGGAGUACAUUUGACAAAUUUCCCUCCGGAUUUCGUUAUCUCACCUUGACCCUCAGCCAAGAUUGGUAAAGCUGCGUCCUGGCGAUCAACAGAGGAUUGAGCAUCA
B9: chr1:150648406:150648517:-|CDS|ENSG00000143457|unk|FALSE|unique (ssRNA)
RNA: GGGAGUUCUACAGUCCGACGAUCUCAGCGUAUGGACAAGCGAACACUAGCACUCCUGGUGCUAGCCCACUCCUCUGAUGUGCUAGAGAAUGUCUUCUCCUCUCUGACAGAUGACAAGUAUGAUGUGGCAAUGAAUCGAGCCAACAACAGAGGAUUGAGCAUCA
B10: ENSG00000134323:stop:overlap|stop_codon|ENSG00000134323|stop_codon|NA|stop_codon (ssRNA)
RNA: GGGAGUUCUACAGUCCGACGAUCAAAAAUUGCAGGCAAGACAGCAGCAGUUGCUAAAGAAAAUUGAACACGCUCGGACUUGCUAGACGCUUCUCAAAACUGGACAGUCACUGCCACUUUGCACAUUUUGAUUUUUUUUUUAAACAACAGAGGAUUGAGCAUCA
B11: chr4:189940876:189940977:+|5pUTR|ENSG00000109536|unk|total|mutant (ssRNA)
RNA: GGGAGUUCUACAGUCCGACGAUCAGUGGAACUCUGAGCCAUUCAGCGUUUGGGUGAAGACGGAGGCGGGUUCUACAGAGACGCCGGCUGUCAGGGAGUGUUUAUUUCGCGUCCGCUUCUGUUUCUCCGCGCCCCUGUGCUGCCCAACAGAGGAUUGAGCAUCA
B12: chr4:102797111:102797208:-|3pUTR|ENSG00000109332|msi1_unk|total|mutant (ssRNA)
RNA: GGGAGUUCUACAGUCCGACGAUCUCUGAGAAGACUUAAGUUCUUCCAGCUUUGGACAAUAACUGCUUUCCGAAACUGUAAAGCCGUUACAAGAGAACAGUUGCCCAAGACUCAGAAUUUUUAAAAAAAAAAAUGGAGCAUGUGCAACAGAGGAUUGAGCAUCA
B13: chr19:35555165:35555334:-|CDS|ENSG00000105675|control|control|control (ssRNA)
RNA: GGGAGUUCUACAGUCCGACGAUCGGCCGUCACGGGGGAUGGUGUGAAUGACUCCCCAGCUCUGAAGAAGGCAGACAUCGGAGUAGCCAUGGGCAUCGCUGGCUCAGAUGCUGCCAAAAAUGCAGCUGACAUGAUCCUGCUGGACAACAGAGGAUUGAGCAUCA
B14: chr9:135932998:135933099:-|3pUTR|ENSG00000130560|unk|total|mutant (ssRNA)
RNA: GGGAGUUCUACAGUCCGACGAUCGCUGCUUGAAUUGCCGUGCCGACAUUUGCUUGGAGAGUCCACUUGUUAUUUGACGGAGGCCGGUUUCAACCCAGAGUUAAUGUCAAGCAUGCUAAUUUAACCCGUCACUCACAGAUGACUCAACAGAGGAUUGAGCAUCA
B15: ENSG00000164574:stop:overlap|stop_codon|ENSG00000164574|stop_codon|NA|stop_codon (ssRNA)
RNA: GGGAGUUCUACAGUCCGACGAUCUCGACGACUUCAGUGAUCGAGAUCUGCCGACUGCAUCAACUCCCUCUCCCUUUGUGUGCUAGAGACCCUUCAGCAUACGCAGCUCUGGGAUGAUGCCAGGAUUCCAUUUGGAGACUUCUGCAACAGAGGAUUGAGCAUCA
B16: chr11:119418629:119418730:-|3pUTR|ENSG00000154096|msi1|FALSE|unique (ssRNA)
RNA: GGGAGUUCUACAGUCCGACGAUCCCUCAGAGGCCUUGGGGCAUGACCCAGUGAAGAUGCAGGUUUGACCAGGAAAGCAGCGCUAGUGGAGGGUUGGAGAAGGAGGUAAAGGAUGAGGGUUCAUCAUCCCUCCCUGCCUAAGGACAACAGAGGAUUGAGCAUCA
B17: chr10:30461265:30461366:+|3pUTR|ENSG00000107968|unk|total|mutant (ssRNA)
RNA: GGGAGUUCUACAGUCCGACGAUCUCUUUGAGCCUUUAUUGGUAAAUUCUGGUAUACAUUGAAUUCAUUAUAAUUUGGGUGACCCGAACAACUUGAAGAUUGCCGCAAUAAGCUGGACCCGUGUCCUAAAAAUGGCUAACUGAUCAACAGAGGAUUGAGCAUCA
B18: chr11:110579372:110581225:-|CDS|ENSG00000137727|control|control|control (ssRNA)
RNA: GGGAGUUCUACAGUCCGACGAUCUAGUCAGAGCUCUUCUGGUUCUCUGCCUUGGGAAAGAGCCUCAGCCAGCUCUUGGACUCUAGAGGAUGCGACCAGCCCAGACUCAGGGCCUACAGUGGUCUGCGACAUUGAGGACAGGUACAACAGAGGAUUGAGCAUCA
B19: chr15:100649042:100649144:+|3pUTR|ENSG00000183475|unk|FALSE|unique (ssRNA)
RNA: GGGAGUUCUACAGUCCGACGAUCUACCUCUGCUUUUCUUUUGCUGUGCUCUUGUUUUUAACUUAUUUUUUUUUUAACAACUGUAGUACACUACCCUGAGACACUGCAUCUCGAUUUCUAUCUCUAGUUAGAGUUGUACUUUUACAACAGAGGAUUGAGCAUCA
B20: chr9:34241424:34241533:+|CDS|ENSG00000165006|unk|FALSE|unique (ssRNA)
RNA: GGGAGUUCUACAGUCCGACGAUCAACCCCAUCCUCGCCAGCUUGCAGCACAACAGCAUCCUCACACCAACUCGGGUCAGCAGUAGUGCCACGAAACAGAAAGUUCUCAGCCCACCUCACAUAAAGGCGGAUUUCAAUCUUGCUCAACAGAGGAUUGAGCAUCA
B21: ENSG00000198589:be:win_2551|CDS|ENSG00000198589|bound_else_gene|NA|bound_elsewhere_windowed (ssRNA)
RNA: GGGAGUUCUACAGUCCGACGAUCAAUAACAGUAGAGAAAACAGGAGGAGCUUGCUACAAUGCUCUGUGUGGCAAGAAUGGAUGCUUUCUCUCUGCUAUUUUAAUCCUAAGAAUUCAGAUGAGCAAAAGAUAACAGAAAUGGUACAACAGAGGAUUGAGCAUCA
B22: chr14:70725707:70725808:-|3pUTR|ENSG00000006432|unk|FALSE|unique (ssRNA)
RNA: GGGAGUUCUACAGUCCGACGAUCGUCGAAUAUCAGCUAUUUCAUAUGGUUCACCCUAAUGUACCUGCCUCUCUCUUUGGCUUUAGGUCUGAGAAUGACUUGUCUUUGUCAAGGUAUACUAUUGUUAGAAACGCAUUACCAAAUCAACAGAGGAUUGAGCAUCA

target: MSI1 full-length (mouse, UniProt Q61474 1-362); assay: nsRBNS (natural sequence RNA bind-n-seq); RBNS binding buffer (assumed for nsRBNS): 25 mM Tris pH 7.5, 150 mM KCl, 3 mM MgCl2, 0.01% Triton X-100, 500 ug/ml BSA, 20 U/ml SUPERase-In, 4 C; UNK is unkempt and MSI1 is Musashi-1; names of the RNAs are library labels; protein concentration not given here; high values mean tight binding
UniProt Q61474, sequence (Q61474 whole entry): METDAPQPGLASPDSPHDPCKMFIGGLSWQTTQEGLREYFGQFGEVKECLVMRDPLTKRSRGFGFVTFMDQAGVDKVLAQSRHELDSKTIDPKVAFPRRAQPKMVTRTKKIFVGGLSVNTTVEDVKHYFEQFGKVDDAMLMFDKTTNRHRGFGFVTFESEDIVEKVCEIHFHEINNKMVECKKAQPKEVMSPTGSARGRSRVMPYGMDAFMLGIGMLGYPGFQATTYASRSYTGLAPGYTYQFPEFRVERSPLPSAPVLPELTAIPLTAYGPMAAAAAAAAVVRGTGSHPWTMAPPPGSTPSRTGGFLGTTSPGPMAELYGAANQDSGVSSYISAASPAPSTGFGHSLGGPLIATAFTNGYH

Binder	binding signal [enrichment R]
B1	2.28
B2	0.484
B3	1.43
B4	0.39
B5	2.7
B6	0.362
B7	7.93
B8	0.339
B9	0.32
B10	0.295
B11	0.536
B12	0.232
B13	0.465
B14	0.28
B15	0.5
B16	0.499
B17	0.295
B18	0.42
B19	8.08
B20	0.718
B21	0.493
B22	2.72
